According to the supplement of paper PMC10126150:
Values marked as one replicate rest on one cluster of the flow cell; about a third of the high ones do not repeat.

Test system: ATP
Experiment: switch fluorescence ratio, 500 uM ATP over buffer (Cy3 cluster intensity, sum of 5 cycles each) (fold (ratio)); higher = stronger signal-on switching upon ATP binding; sequences stand for … in TCGTCGGCAGCGTCAGATGTGTATAAGAGACAGTTTTTTTTTTTTTTTTTTTTTTTTT…TC
Details: aptamer strand: ATP DNA aptamer (quencher-CACCTGGGGGAGTATTGCGGAGGAAGG + anchor), 100 nM annealed; ATP concentration: 500 uM; one replicate
Outline: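 After annealing to 100 nM quencher-labelled ATP aptamer, Cy3-labelled switching-strand clusters on a modified Illumina MiSeq flow-cell were imaged in selection buffer. A second image followed after 15 min with 500 uM ATP at 22 °C, and five such buffer/ATP cycles were done, each separated by NaOH stripping and re-annealing. The fluorescence ratio, averaged per switch-domain sequence, is summed target-cycle over summed buffer-cycle Cy3 intensity per cluster, with clusters outside 100-1000 RFU excluded.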
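Also: ATP exposure 15 min at 22 °C before imaging.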

Sequence TAGATGCGC has a switch fluorescence ratio of 1.03.

With ACGCACCCCT the switch fluorescence ratio was 1.53.

Work on AAATGAGTAA yielded a switch fluorescence ratio of 0.982.

In the case of CATAATTAGA, the switch fluorescence ratio is reported as 0.996.

For GCGCGGTCAG, the switch fluorescence ratio was 1.01.

CGATGTATT showed a switch fluorescence ratio of 0.991.

With ATACGTGAGG the switch fluorescence ratio was 1.02.

ATTACGGGCG was tested, and the switch fluorescence ratio was 1.02.

Work on ACCTTGTACG yielded a switch fluorescence ratio of 1.09.

TAGCGGGGT was tested, and the switch fluorescence ratio was 0.987.

GCACTCTCCG gave a switch fluorescence ratio of 1.24.

AAATCTGTAC was tested, and the switch fluorescence ratio was 1.12.

Sequence TACTAGTTGC has a switch fluorescence ratio of 0.997.

GAACGAGACC gave a switch fluorescence ratio of 1.15.

TTGCGAACGC was tested, and the switch fluorescence ratio was 1.02.

Sequence GTAAGAGGAT has a switch fluorescence ratio of 1.03.

In the case of AAAAGACGCC, the switch fluorescence ratio is reported as 1.01.

In the case of TCTGGTTTCT, the switch fluorescence ratio is reported as 1.01.

ACTCAAAGCT showed a switch fluorescence ratio of 1.21.

AATTATATTA was tested, and the switch fluorescence ratio was 1.01.

GGTCATCGGT gave a switch fluorescence ratio of 0.912.

Sequence GATAAAATGG has a switch fluorescence ratio of 1.03.

Sequence GCGGACCAAC has a switch fluorescence ratio of 1.14.

For CGGTTAGTTG, the switch fluorescence ratio was 0.958.

With TGTTAAGGGT the switch fluorescence ratio was 1.02.

In the case of ACCCAGATAT, the switch fluorescence ratio is reported as 1.05.

CGTAAAGAC showed a switch fluorescence ratio of 2.12.

Work on CGTGCACTAT yielded a switch fluorescence ratio of 0.963.

For TACCCTAGGT, the switch fluorescence ratio was 1.11.

With GGAGGAGGAT the switch fluorescence ratio was 0.964.

In the case of CCTGGCCTCG, the switch fluorescence ratio is reported as 1.07.

GTCAGGTATA gave a switch fluorescence ratio of 0.981.

For GGTGCCCCGA, the switch fluorescence ratio was 1.03.

CCATAAAAAG was tested, and the switch fluorescence ratio was 1.02.

With TAGTGTTTTA the switch fluorescence ratio was 0.98.

For AGGCGAAGGT, the switch fluorescence ratio was 1.02.

TAGGTGCGCA showed a switch fluorescence ratio of 1.07.

With CATGGCCTGT the switch fluorescence ratio was 1.

With CGCTGTCCTC the switch fluorescence ratio was 1.17.

In the case of TAAGTGAGTG, the switch fluorescence ratio is reported as 1.01.

Sequence TCAGACGCG has a switch fluorescence ratio of 0.969.

Sequence ATGGTGTCGT has a switch fluorescence ratio of 1.01.

With GCATGATTGC the switch fluorescence ratio was 0.994.

For TTATTTCTGC, the switch fluorescence ratio was 0.949.

Sequence ATGTACGACG has a switch fluorescence ratio of 0.968.

For CATCGGACC, the switch fluorescence ratio was 1.1.

For ACTTAGTCAC, the switch fluorescence ratio was 1.09.

ATAGCGGTAT was tested, and the switch fluorescence ratio was 1.05.

Work on GCTTAATGGT yielded a switch fluorescence ratio of 0.987.

Work on TTATTGAGGC yielded a switch fluorescence ratio of 0.936.

CAGTCAGACC was tested, and the switch fluorescence ratio was 1.06.

With GAATGGATCT the switch fluorescence ratio was 1.03.

In the case of AAGTATCCAG, the switch fluorescence ratio is reported as 0.962.

Work on AAATCGCTGT yielded a switch fluorescence ratio of 0.949.

In the case of CTGGGGCCGC, the switch fluorescence ratio is reported as 0.995.

Sequence TTTTAAGGGC has a switch fluorescence ratio of 1.01.

GAATTAGTCG gave a switch fluorescence ratio of 0.989.

CGTAACCTTC was tested, and the switch fluorescence ratio was 1.88.

TATTGGTGGC was tested, and the switch fluorescence ratio was 1.02.

Work on ACGCTAGTCG yielded a switch fluorescence ratio of 1.01.

For GAGCACAG, the switch fluorescence ratio was 1.1.

In the case of CATGATTAG, the switch fluorescence ratio is reported as 1.02.

Sequence AGGCCCGCCC has a switch fluorescence ratio of 0.989.

For ACAGGACTCA, the switch fluorescence ratio was 1.09.

With GCGAGAATG the switch fluorescence ratio was 0.984.

In the case of CGGTCAGTAT, the switch fluorescence ratio is reported as 1.01.

GCTTTGACAC showed a switch fluorescence ratio of 0.976.

Work on CGAAGAAGGG yielded a switch fluorescence ratio of 0.949.

AAGAGTGTTT gave a switch fluorescence ratio of 1.03.

ATTCACTAGC was tested, and the switch fluorescence ratio was 1.01.

GTCGCAGGTC showed a switch fluorescence ratio of 1.08.

For AACGCAGGCG, the switch fluorescence ratio was 1.

With AGCCTTTGCT the switch fluorescence ratio was 0.978.

Work on TGAAGTTGAG yielded a switch fluorescence ratio of 1.01.

CAATTTGCAT gave a switch fluorescence ratio of 0.957.

Work on TGTTACAGGG yielded a switch fluorescence ratio of 0.958.

Work on TATGTCAGGA yielded a switch fluorescence ratio of 0.982.

Work on GGAACCGAGT yielded a switch fluorescence ratio of 1.01.

Work on TGAACTGTCC yielded a switch fluorescence ratio of 1.2.

GGAGAGAGAT was tested, and the switch fluorescence ratio was 0.985.

Work on GCAATTAGTA yielded a switch fluorescence ratio of 0.983.

AATTCATTGG gave a switch fluorescence ratio of 0.984.

TACAGGATGA gave a switch fluorescence ratio of 0.998.

With ATTTCATGTT the switch fluorescence ratio was 0.984.

For AGGTTCGAC, the switch fluorescence ratio was 0.998.

For CTAACAGTTG, the switch fluorescence ratio was 0.988.

GGGCCTGTAC showed a switch fluorescence ratio of 0.996.

In the case of GGCAGACGTG, the switch fluorescence ratio is reported as 1.05.

Sequence CCGAATCTGT has a switch fluorescence ratio of 1.04.

With CGATATGTAA the switch fluorescence ratio was 0.984.

Sequence AGATCTTTTG has a switch fluorescence ratio of 1.05.

With GTTTTGACCA the switch fluorescence ratio was 0.98.

Sequence CAGGCAGCGA has a switch fluorescence ratio of 1.34.

In the case of GTGCCCGGGA, the switch fluorescence ratio is reported as 1.02.

TGAGCATCGG gave a switch fluorescence ratio of 1.03.

TACTCTGCGG gave a switch fluorescence ratio of 2.24.

TTAAAAAGT showed a switch fluorescence ratio of 1.01.

Sequence ATTAGTTGCC has a switch fluorescence ratio of 1.03.

TATTCGGAGG was tested, and the switch fluorescence ratio was 0.951.

TCCATACCTG gave a switch fluorescence ratio of 1.

ACATGAGATC gave a switch fluorescence ratio of 1.09.

Work on ATCTGAATGT yielded a switch fluorescence ratio of 0.949.

GATAATGTAC showed a switch fluorescence ratio of 1.11.

In the case of CCCTGATGAG, the switch fluorescence ratio is reported as 0.992.

Work on CCATCATACC yielded a switch fluorescence ratio of 1.08.

Work on AAGCCAGGCT yielded a switch fluorescence ratio of 0.99.

TAATTTCGGA showed a switch fluorescence ratio of 0.98.

With GCGCTATATT the switch fluorescence ratio was 1.32.

With AGAACCAAAA the switch fluorescence ratio was 0.983.

For AGGCCGTGTG, the switch fluorescence ratio was 1.05.

CGGCACCAGC gave a switch fluorescence ratio of 1.02.

GGTGTAAGGC was tested, and the switch fluorescence ratio was 1.02.

For CTGGTGATTG, the switch fluorescence ratio was 0.993.

Work on ACATGCTTTG yielded a switch fluorescence ratio of 1.04.

ATTGGTGCTC was tested, and the switch fluorescence ratio was 0.964.

For CGACAGCGAT, the switch fluorescence ratio was 5.64.

ACATCCTGGA gave a switch fluorescence ratio of 1.02.

For GACCATGGAG, the switch fluorescence ratio was 0.963.

Work on CACTGTACTG yielded a switch fluorescence ratio of 1.72.

In the case of GATGCGGGAA, the switch fluorescence ratio is reported as 1.03.

AATTAAGGGC was tested, and the switch fluorescence ratio was 0.989.

TAAGTACGTT was tested, and the switch fluorescence ratio was 1.11.

In the case of ATTATAAACT, the switch fluorescence ratio is reported as 0.998.

Work on TCTCCCATCG yielded a switch fluorescence ratio of 1.14.

GTCTTGCG gave a switch fluorescence ratio of 0.93.

With CTTTTATACA the switch fluorescence ratio was 1.11.

For CGTTGAGCGT, the switch fluorescence ratio was 1.

TAACCCACTA showed a switch fluorescence ratio of 1.12.

Sequence GTTTGCCTGG has a switch fluorescence ratio of 0.943.

Sequence TTTACTGG has a switch fluorescence ratio of 1.03.

CCTAGAGTTT showed a switch fluorescence ratio of 0.958.

Sequence CCCGGACTAG has a switch fluorescence ratio of 1.04.

ATAGCCATAA showed a switch fluorescence ratio of 1.04.

Sequence TGGGCCGGGC has a switch fluorescence ratio of 0.987.

TAGGTGCCCT gave a switch fluorescence ratio of 1.06.

TTAGATGATG gave a switch fluorescence ratio of 0.968.

GAGGACTGTG showed a switch fluorescence ratio of 1.21.

In the case of TACTGTTCGT, the switch fluorescence ratio is reported as 1.01.

CTTACGGCTA gave a switch fluorescence ratio of 1.05.

Work on TGTACGCAGG yielded a switch fluorescence ratio of 1.11.

Sequence TCGCCGAGCG has a switch fluorescence ratio of 1.01.

With CGAAAGGGA the switch fluorescence ratio was 0.975.

For GCTATTTTGT, the switch fluorescence ratio was 0.986.

Work on AGAGCTAAAG yielded a switch fluorescence ratio of 0.976.

With TGAACCCAAA the switch fluorescence ratio was 0.995.

For TGCGGCCCCC, the switch fluorescence ratio was 1.01.

Work on GGTTCTGCGC yielded a switch fluorescence ratio of 0.969.

Sequence TGGCATAGGG has a switch fluorescence ratio of 1.09.

ATTAGATCGT showed a switch fluorescence ratio of 0.989.

Work on CATCTTGGGT yielded a switch fluorescence ratio of 0.976.

Sequence CAAGCGGTAT has a switch fluorescence ratio of 1.04.

For CGATATTAAG, the switch fluorescence ratio was 0.937.

For CGCTGTTATC, the switch fluorescence ratio was 1.05.

CGGGCTGGGA was tested, and the switch fluorescence ratio was 1.02.

Sequence ACGGCGAAG has a switch fluorescence ratio of 0.968.

Sequence GCCCTGTAGA has a switch fluorescence ratio of 1.06.

For AACGGTTTC, the switch fluorescence ratio was 1.

In the case of CGGGATCCTT, the switch fluorescence ratio is reported as 1.05.

With CTCTTAAAAA the switch fluorescence ratio was 0.949.

AAGGACTCCA was tested, and the switch fluorescence ratio was 1.06.

GGATCGTTTG showed a switch fluorescence ratio of 1.

TTGCTTCGTA was tested, and the switch fluorescence ratio was 0.95.

TTACTTCGAC showed a switch fluorescence ratio of 1.11.

Work on GCGCAGTTAG yielded a switch fluorescence ratio of 1.08.

TAAGCGTCTA was tested, and the switch fluorescence ratio was 0.992.

For TATAGGGCTC, the switch fluorescence ratio was 1.

GAAGTCGCCT was tested, and the switch fluorescence ratio was 0.962.

ACGACGTCGG gave a switch fluorescence ratio of 1.05.

AAGTAGTACT gave a switch fluorescence ratio of 1.04.

CGTTTTATTC was tested, and the switch fluorescence ratio was 1.07.

Work on CAGGCGGAGC yielded a switch fluorescence ratio of 1.03.

CCTAGTAAGT gave a switch fluorescence ratio of 1.05.

Sequence TGTTCTGGG has a switch fluorescence ratio of 0.979.

TTGTAGCTGC showed a switch fluorescence ratio of 1.16.

Sequence ATAGGTATCA has a switch fluorescence ratio of 0.994.

Work on GAAATTAAGG yielded a switch fluorescence ratio of 0.995.

TCGTCGTG showed a switch fluorescence ratio of 0.998.

Work on GGCACTGGTC yielded a switch fluorescence ratio of 1.09.

With AAATGTAAAC the switch fluorescence ratio was 1.

ATTCTGCGGT gave a switch fluorescence ratio of 1.03.

Work on GAAGTTTGCT yielded a switch fluorescence ratio of 0.927.

For TTTTTAATA, the switch fluorescence ratio was 1.03.

GTAAGCTCTG showed a switch fluorescence ratio of 0.952.

TCCGGGGCTT gave a switch fluorescence ratio of 1.16.

AATTGGAGCA was tested, and the switch fluorescence ratio was 1.

CAGTCAGGCG gave a switch fluorescence ratio of 0.957.

Sequence GCACGCATTA has a switch fluorescence ratio of 1.63.

GGCGTTGCAG gave a switch fluorescence ratio of 0.956.

For AATAACAATC, the switch fluorescence ratio was 1.03.

GCCCTTTGGC was tested, and the switch fluorescence ratio was 0.992.

In the case of ACTGTGGGCC, the switch fluorescence ratio is reported as 0.982.

CTTTGATCTT gave a switch fluorescence ratio of 0.999.

AGTGAAAGCG was tested, and the switch fluorescence ratio was 1.06.

ACGTGTTCGT was tested, and the switch fluorescence ratio was 1.04.

Work on GCATTTCTGC yielded a switch fluorescence ratio of 0.991.

Work on TTTTCTAGGA yielded a switch fluorescence ratio of 0.982.

GACCATCTCG was tested, and the switch fluorescence ratio was 1.03.

Work on ACGGGGGGG yielded a switch fluorescence ratio of 1.01.

For GCCCGTGCGC, the switch fluorescence ratio was 1.02.

AGTATCAACC gave a switch fluorescence ratio of 1.02.

Work on CCTGTTTTTG yielded a switch fluorescence ratio of 0.972.
